{"source": "paper PMC3605307", "about": "(PLoS Pathogens, 2013)", "molecular_target": "T1, TRAIL (TNF-related apoptosis inducing ligand) ectodomain (UniProt P50591 39-281)", "T1 construct": "also called TNFSF10; Apo2L", "test": "SPR", "settings": "one partner purified", "data": [{"binder": "human TRAIL-R2-Fc V167A (Fc fusion, source: Sf9 insect cells, culture supernatant; not shown: Fc (human IgG1), C-terminal, kept) not shown", "values": [{"measurement": "Kd", "value": 4.35, "unit": "nM"}, {"measurement": "koff", "value": "9.57e-06", "unit": "s⁻¹"}, {"measurement": "kon", "value": 2200, "unit": "M⁻¹ s⁻¹"}]}]}
